Laboratory results published in PubChem BioAssay AID463173 (ICCB-Longwood Screening Facility, Harvard Medical School, 2010).
In all, about 52,000 compounds went through this assay and about 1,700 (3.3%) were called active. No stated cut-off is given here; in the data, active means survival mostly below about 52% (no sharp cut-off); inactive means mostly above about 56%. This is one part of the list.

system: Wild type; test: growth inhibition of S. aureus wild type versus tarO mutant, primary screen, teichoic acid synthesis inhibitors, RN4220, OD600 (AID 463173); settings: S. aureus RN4220 wild type/DeltatarO growth, OD600, 18 h, active compounds read low, screened at 18.75 µg/mL (by protocol)

Q: With `Cc1cc(Cl)ccc1OCC(=O)N=Nc1c(O)[nH]c(=O)[nH]c1=O` as the compound, how does the survival read?
A: The survival was inactive: 118%.

Q: How did the survival turn out when `COc1ccc(NC(=O)c2cc(S(=O)(=O)N3CCOCC3)ccc2OC)cc1` was run?
A: The survival was inactive: 82%.

Q: `CCc1cccc(C)c1NS(=O)(=O)c1c(C(=O)N2CCC(C)CC2)c(C)n(C)c1C` was tested. Which survival did it give?
A: Its survival is inactive: 55%.

Q: `COc1ccc(S(=O)(=O)N2CCC(C(=O)Nc3ccc(Oc4ccccc4)cc3)CC2)cc1` was tested. Which survival did it give?
A: The survival was inactive: 98%.

Q: Which survival does the source give for `Cc1ccc(C)c(NC(=O)N2CCN(C(=O)c3nsc4ccccc34)CC2)c1` here?
A: Its survival is inactive: 69%.

Q: For `COc1cc(Cl)c(C)cc1NC(=O)C1CCN(c2nc3ccccc3n3cccc23)CC1`, which survival is on record?
A: Its survival is inactive: 78%.

Q: How did the survival turn out when `COc1ccc(S(=O)(=O)Nc2cccc(-c3ccc(N4CCCC4)nn3)c2)c(OC)c1` was run?
A: The survival was inactive: 69%.

Q: With `COc1ccc(OC)c(NS(=O)(=O)c2ccc3c(c2)C(C)(C)C(=O)N3C)c1` as the compound, how does the survival read?
A: Its survival is inactive: 78%.

Q: How did the survival turn out when `CCOc1ccccc1N(CC)C(=O)Cn1ncc2c([nH]c3ccccc32)c1=O` was run?
A: The survival was inactive: 64%.

Q: For `NC(=O)C1CCN(C(=O)c2ccc(NC(=O)c3nsc4ccccc34)cc2)CC1`, which survival is on record?
A: Its survival is inactive: 82%.

Q: How did the survival turn out when `COc1cccc(CNC(=O)c2ccc3c(c2)c(C)c(C)n3Cc2ccccc2)c1` was run?
A: Its survival is inactive: 72%.

Q: `COc1ccc(CNC(=O)c2cc3cc4cc(OC)ccc4nc3o2)cc1` was tested. Which survival did it give?
A: Its survival is inactive: 93%.

Q: With `Cc1nnc(N2CCC(C(=O)NC3CCCCC3)CC2)c2nn(-c3ccccc3)c(C)c12` as the compound, how does the survival read?
A: The survival was inactive: 84%.

Q: Which survival does the source give for `Clc1cccc(-c2ccc(CNCCSc3nnnn3-c3ccccc3)o2)c1` here?
A: Its survival is inactive: 41%.

Q: How did the survival turn out when `CC(=O)c1ccc(NC(=O)c2nc3ccccc3nc2N2CCCCC2)cc1` was run?
A: Its survival is inactive: 66%.

Q: Which survival does the source give for `Cc1ccc2cc(C#N)c(SCC(=O)Nc3ccccc3)nc2c1` here?
A: Its survival is inactive: 102%.

Q: With `O=C(c1ccccc1)N1CCN(CCc2ccncc2)CC1` as the compound, how does the survival read?
A: Its survival is inactive: 84%.

Q: `CCOc1ccc(CCNC(=O)c2cn(C)c3ccc(S(=O)(=O)N4CCCCC4)cc3c2=O)cc1OCC` was tested. Which survival did it give?
A: The survival was inactive: 132%.

Q: Which survival does the source give for `O=C(NC1CCCCC1)C(c1ccc(O)c(O)c1)N(C(=O)Cn1nnc2ccccc21)C1CCCCC1` (stereo not given) here?
A: Its survival is inactive: 113%.

Q: `CC1=C(c2ccc(C)c(C)c2)S(=O)(=O)NC1=NCc1ccccc1Cl` was tested. Which survival did it give?
A: The survival was inactive: 86%.

Q: With `Cc1cc(C)c(NC(=O)c2sc3nc(C)cc(C)c3c2NC(=O)c2ccccc2)c(C)c1` as the compound, how does the survival read?
A: The survival was inactive: 70%.

Q: With `CCOC(=O)c1c(C)[nH]c(C)c1S(=O)(=O)N1CCC(C(=O)Nc2cc(Cl)ccc2OC)CC1` as the compound, how does the survival read?
A: The survival was inactive: 81%.

Q: Which survival does the source give for `COc1ccccc1C(=O)Nc1cccc(C(=O)OCc2cc(=O)n3cc(C)sc3n2)c1` here?
A: The survival was inactive: 75%.

Q: How did the survival turn out when `CCc1nc2nc(C)c(NS(=O)(=O)c3ccc(C(C)(C)C)cc3)c(=O)n2[nH]1` was run?
A: The survival was inactive: 86%.

Q: How did the survival turn out when `O=C(CCn1cnc2ccccc2c1=O)NCc1ccccc1Cl` was run?
A: Its survival is inactive: 98%.

Q: Which survival does the source give for `O=C(CNC(=O)c1ccc(F)cc1)OCc1cc(=O)n2nc(C3CC3)sc2n1` here?
A: Its survival is inactive: 71%.

Q: How did the survival turn out when `CCc1nn2c(=O)cc(COC(=O)COc3ccc(OC)cc3)nc2s1` was run?
A: Its survival is inactive: 82%.

Q: With `COC(=O)CN1C(=O)CSc2ccc(S(=O)(=O)Nc3cc(C)ccc3C)cc21` as the compound, how does the survival read?
A: The survival was inactive: 19%.

Q: For `CCC(=O)N1c2ccccc2CC1C(=O)NCCc1ccc(OC)c(OC)c1` (stereo not given), which survival is on record?
A: The survival was inactive: 95%.

Q: For `Cc1c(C(=O)Nc2cccc(C(F)(F)F)c2)oc2ccc3c(c12)C(=O)CC(C)(C)O3`, which survival is on record?
A: Its survival is inactive: 93%.

Q: For `COc1ccc(-c2nc(C)c(CCNS(=O)(=O)c3cc(Cl)ccc3Cl)s2)cc1`, which survival is on record?
A: Its survival is inactive: 87%.

Q: For `CCc1ccc(S(=O)(=O)Nc2cc3c(C(=O)OCc4ccccc4)c(C)oc3c3ccccc23)cc1`, which survival is on record?
A: Its survival is inactive: 83%.

Q: `CCOC(=O)c1sc2ncn(CC(=O)Nc3ccc(OCC)cc3)c(=O)c2c1C` was tested. Which survival did it give?
A: The survival was inactive: 67%.

Q: With `Cc1c(NC(=O)c2ccc(-c3cccc([N+](=O)[O-])c3)o2)cccc1-c1nc2cc(Cl)ccc2o1` as the compound, how does the survival read?
A: Its survival is inactive: 84%.

Q: `COc1cccc(-n2c(=O)c3sc4ccccc4c3n(CC(=O)NC3CCCCC3)c2=O)c1` was tested. Which survival did it give?
A: Its survival is inactive: 147%.

Q: Which survival does the source give for `CCOC(=O)c1cc2c(=O)n3ccccc3nc2n(CCOC)c1=NC(=O)c1c(-c2ccccc2Cl)noc1C` here?
A: The survival was inactive: 150%.

Q: `Cn1c(=O)oc2cc(S(=O)(=O)NCCC(=O)Nc3ccc(F)cc3F)ccc21` was tested. Which survival did it give?
A: The survival was inactive: 74%.

Q: `CCN(CC)S(=O)(=O)c1ccc(OC)c(-n2cnnn2)c1` was tested. Which survival did it give?
A: Its survival is inactive: 73%.

Q: For `CCOC(=O)Nc1ccc2c(c1)N(CCCN(C)C)c1ccccc1CC2`, which survival is on record?
A: Its survival is inactive: 105%.

Q: For `Cc1cc(OCC(=O)Nc2ncn[nH]2)ccc1Cl`, which survival is on record?
A: Its survival is inactive: 78%.

Q: How did the survival turn out when `Cc1ccc(S(=O)(=O)N(CC(=O)Nc2ccc3c(c2)OCO3)c2cc(Cl)cc(Cl)c2)cc1` was run?
A: The survival was inactive: 141%.

Q: With `COc1ccc(CNC(=O)Cn2c(=O)nc(-c3ccccc3)c3ccccc32)cc1OC` as the compound, how does the survival read?
A: Its survival is inactive: 68%.

Q: How did the survival turn out when `CCCCC(=O)NC1CC(=O)N(c2ccc3c(c2)OCCO3)C1` (stereo not given) was run?
A: Its survival is inactive: 152%.

Q: `CC(C)CCNC(=O)Cc1ccc(NC(=O)N2CCCCc3ccccc32)cc1` was tested. Which survival did it give?
A: Its survival is inactive: 70%.

Q: `O=C(NCCC1=CCCCC1)c1ccc2c(c1)N(Cc1cccc(Cl)c1)C(=O)c1ccccc1S2=O` (stereo not given) was tested. Which survival did it give?
A: Its survival is inactive: 32%.

Q: Which survival does the source give for `O=C(O)CCSc1nc(-c2ccccc2)cc(=O)[nH]1` here?
A: The survival was inactive: 104%.

Q: With `CCCCn1c(SCC(=O)c2ccccc2)nc2c(sc3ccccc32)c1=O` as the compound, how does the survival read?
A: The survival was active: -1%.

Q: With `COC(=O)c1cc2oc3ccccc3c2n1Cc1nc(-c2ccc(Cl)cc2)oc1C` as the compound, how does the survival read?
A: The survival was inactive: 80%.

Q: How did the survival turn out when `CCN(C(=O)Cn1nnc2sc3c(c2c1=O)CCC(C(C)(C)C)C3)c1cccc(C)c1` (stereo not given) was run?
A: The survival was inactive: 79%.

Q: Which survival does the source give for `Cc1nc2c(-c3ccc(F)cc3)c(C)nn2c(C)c1CCC(=O)N1CCN(c2ccccc2)CC1` here?
A: Its survival is inactive: 75%.

Q: How did the survival turn out when `CC(=O)OC1OCCOC1OC(C)=O` (stereo not given) was run?
A: Its survival is inactive: 103%.

Q: Which survival does the source give for `O=C(C(F)F)N(Cc1ccccc1)Cc1ccccc1` here?
A: Its survival is inactive: 101%.

Q: How did the survival turn out when `CCc1ccc(CNC(=O)c2nn(-c3ccc(C)cc3)c(=O)c3c2c2ccccc2n3C)cc1` was run?
A: Its survival is inactive: 151%.

Q: For `COc1cc(CCC(=O)NCc2ccc3c(c2)CCN3C(=O)c2ccccc2)cc(OC)c1OC`, which survival is on record?
A: The survival was inactive: 129%.

Q: `CC(=O)c1ccc(N2CCN(C(=O)C3CCCN(S(=O)(=O)c4ccc(Br)s4)C3)CC2)cc1` (stereo not given) was tested. Which survival did it give?
A: The survival was inactive: 71%.
